Some of the results follow.
System: PfAP2-HC AP2 domain (GST-tagged)
Assay: gcPBM binding intensity (ln(normalized median fluorescence intensity)); higher = stronger DNA binding
Procedure, shortened: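 GST-fused DNA-binding domains of P. falciparum, expressed in E. coli, were applied at about 25 μg on average for 1 h to an Agilent 4 × 180k array of primer-extended double-stranded 36-bp intergenic genomic probes and negative controls. Binding intensity is the highest Masliner-normalised natural-log median intensity across replicate spots of either probe orientation, measured with Alexa488 anti-GST antibody and a 488 nm scan.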

Question: With “GAAGACAATTATATGTGTACATATATATACATATAT [XGTACX_site4630]” as the sequence, how does the “gcPBM binding intensity (ln)” value read?
Answer: Its value is 9.76.

Question: With “AGTAGATATTATTATAGTACTTTTTATTTTATATTT [XGTACX_site1551]” as the sequence, how does the “gcPBM binding intensity (ln)” value read?
Answer: Its value is 9.7.

Question: “GGAATTCATATTAATTGTACATTTAAAGATAGATGA [XGTACX_site3279]” was tested. Which “gcPBM binding intensity (ln)” value did it give?
Answer: The value was 9.57.

Question: With “ATATTTTACATATTTGCACACATATATTTATATACA [CACACA_site855]” as the sequence, how does the “gcPBM binding intensity (ln)” value read?
Answer: The value was 10.1.

Question: “ATATATATATATATATGTACTTATTTATTTATTTAT [XGTACX_site4645]” was tested. Which “gcPBM binding intensity (ln)” value did it give?
Answer: Its value is 9.81.

Question: Which “gcPBM binding intensity (ln)” value does the source give for “TAATATGTGGACTTTACACACTTGTTTTAAAATTCT [CACACA_site4605]” here?
Answer: Its value is 9.78.

Question: “ATATAAAAATAATAGAGTACAAAAAAAAAATGTATA [XGTACX_site7054]” was tested. Which “gcPBM binding intensity (ln)” value did it give?
Answer: The value was 9.79.

Question: For “GATGATACGATTATCACACATTTATACTTTCTACAT [CACACA_site5669]”, which “gcPBM binding intensity (ln)” value is on record?
Answer: The value was 9.85.

Question: TGTATACATTATTAAGTGCAAGTAGGGAAAAAAAAA was tested. Which “gcPBM binding intensity (ln)” value did it give?
Answer: Its value is 9.62.

Question: How did the “gcPBM binding intensity (ln)” value turn out when “TTTATTTATCTTTACGCACACACTTGCATGTACAAA [CACACA_site1118]” was run?
Answer: Its value is 10.6.

Question: Which “gcPBM binding intensity (ln)” value does the source give for “TACCTACCTTTACGGAGTACACAATAATAGTTATAA [XGTACX_site6593]” here?
Answer: The value was 9.69.

Question: With “ATATGATTAATTAAGTGTACGTATTTATAATTATAA [XGTACX_site5783]” as the sequence, how does the “gcPBM binding intensity (ln)” value read?
Answer: The value was 9.51.

Question: For “ATTACAATTTTAATAGTGCATTTTTATATATTTCTA [GTGCAC_site9918]”, which “gcPBM binding intensity (ln)” value is on record?
Answer: The value was 9.63.

Question: How did the “gcPBM binding intensity (ln)” value turn out when “CAAGAAAAGAAACACACACACATATATATATATATA [CACACA_site3881]” was run?
Answer: The value was 11.2.

Question: How did the “gcPBM binding intensity (ln)” value turn out when “TAAACATATACACGTACATGCAACGGATTTTTTTTT [TGCATGCA_site70]” was run?
Answer: The value was 9.67.

Question: For “TTTTTACTATAAGGGGAAAAAAAAAAAAATAATATA [XGTACX_negctrl_site279]”, which “gcPBM binding intensity (ln)” value is on record?
Answer: The value was 9.25.

Question: Which “gcPBM binding intensity (ln)” value does the source give for “ATATAACTTTTAAAAGCATGCAAATATTTACTCAAT [TGCATGCA_site396]” here?
Answer: The value was 9.62.

Question: How did the “gcPBM binding intensity (ln)” value turn out when “TATATATATATATGTGCACACATAATAAAAAAAAAA [CACACA_site3830]” was run?
Answer: Its value is 10.2.

Question: “TAAAGAATAATACATTCACACAATATTATAAAAATA [CACACA_site5986]” was tested. Which “gcPBM binding intensity (ln)” value did it give?
Answer: The value was 9.67.

Question: “TTGTATGAATTTATTTTTATTGATAATTAATATGTA [TGCATGCA_negctrl_site143]” was tested. Which “gcPBM binding intensity (ln)” value did it give?
Answer: Its value is 9.54.

Question: For “TATGATTAATTACCACAATTGACAAAAAAAAAAAAA [CACACA_negctrl_site336]”, which “gcPBM binding intensity (ln)” value is on record?
Answer: Its value is 9.44.

Question: How did the “gcPBM binding intensity (ln)” value turn out when “GAAATGTCATATAATAGTACACACATGAAAATATAA [XGTACX_site6838]” was run?
Answer: Its value is 9.89.

Question: With “TATAAGTATTAATACACACACAAAATAATAAAAAAA [CACACA_site3481]” as the sequence, how does the “gcPBM binding intensity (ln)” value read?
Answer: Its value is 10.2.

Question: With “AAAAATAAAGGATATACACACTAATTCTATAAATAT [CACACA_site7344]” as the sequence, how does the “gcPBM binding intensity (ln)” value read?
Answer: The value was 9.89.

Question: “GTCTCGATAATGAAAAGTACAAAATAAAAATAATAA [XGTACX_site6471]” was tested. Which “gcPBM binding intensity (ln)” value did it give?
Answer: Its value is 9.61.

Question: How did the “gcPBM binding intensity (ln)” value turn out when “TTGTTCTATATATATGCATGCACGTATGTTAAATTA [TGCATGCA_site659]” was run?
Answer: Its value is 9.77.

Question: How did the “gcPBM binding intensity (ln)” value turn out when “TCTCATATATTGAATTGTACATATGTTAAAATATAG [XGTACX_site6764]” was run?
Answer: Its value is 9.46.

Question: Which “gcPBM binding intensity (ln)” value does the source give for “TATTAATTTTTATACGCATGTGTATAGTAATATATA [TGCATGCA_site1010]” here?
Answer: Its value is 9.62.

Question: “ATACAAAAGGGGAATACACACACATATATATATATA [CACACA_site8694]” was tested. Which “gcPBM binding intensity (ln)” value did it give?
Answer: Its value is 10.3.

Question: For “AATAAACATAGATGTACACACATATACAGATATATA [CACACA_site5570]”, which “gcPBM binding intensity (ln)” value is on record?
Answer: Its value is 10.

Question: For “AAGAAAAGAACAAGAGCATGCACTTAATAAGAATAA [TGCATGCA_site818]”, which “gcPBM binding intensity (ln)” value is on record?
Answer: The value was 9.66.

Question: For “TTAATATATTTTAAAAGTACATAATATTATTTTTTA [XGTACX_site3642]”, which “gcPBM binding intensity (ln)” value is on record?
Answer: Its value is 9.14.

Question: Which “gcPBM binding intensity (ln)” value does the source give for “AAGAGGTTAATGAAATGTACACATATATATATATAT [XGTACX_site1861]” here?
Answer: The value was 9.7.

Question: For “TATAGTTTTGAAAACAAACACACAAAAAAAAAAAAA [CACACA_site1691]”, which “gcPBM binding intensity (ln)” value is on record?
Answer: Its value is 9.73.

Question: How did the “gcPBM binding intensity (ln)” value turn out when TTTTTTTTCTATGTGGTGCACATTATTTTTTTTTTT was run?
Answer: The value was 9.84.

Question: For “ATAATTTCACAAATAGTGCAAAAATTAGTAAGAATA [GTGCAC_site9648]”, which “gcPBM binding intensity (ln)” value is on record?
Answer: The value was 9.76.

Question: How did the “gcPBM binding intensity (ln)” value turn out when “TTTTATAAATATTATACATGCATAATGATAAAAAAA [TGCATGCA_site927]” was run?
Answer: The value was 9.55.

Question: With “TATGTAACCTGTTTTACACACCCCCACCCCCCTCTT [CACACA_site319]” as the sequence, how does the “gcPBM binding intensity (ln)” value read?
Answer: Its value is 10.2.

Question: “AAAAAAAACAGACACACACACATACAAAATATATAT [CACACA_site1449]” was tested. Which “gcPBM binding intensity (ln)” value did it give?
Answer: Its value is 10.7.

Question: With “TTTAAATACAGACATACACACATACACAGACATATA [CACACA_site4460]” as the sequence, how does the “gcPBM binding intensity (ln)” value read?
Answer: The value was 10.6.

Question: Which “gcPBM binding intensity (ln)” value does the source give for “CTCTATTGTTAAAAGGTGCTTTTATGATTTTATATA [GTGCAC_site9409]” here?
Answer: Its value is 9.68.

Question: How did the “gcPBM binding intensity (ln)” value turn out when “ATATTTTTATGTACTTCAAAAAAAAAGAAAAACAAA [CACACA_negctrl_site970]” was run?
Answer: Its value is 9.48.

Question: With “TAATTTTTTTTTAATTGTACATGTGAATATATTTCA [XGTACX_site4115]” as the sequence, how does the “gcPBM binding intensity (ln)” value read?
Answer: The value was 9.35.

Question: “GTTTACATTTTAAGAAGTACAAAATTTATGGTTAAA [XGTACX_site450]” was tested. Which “gcPBM binding intensity (ln)” value did it give?
Answer: The value was 9.42.

Question: “TATATATATATATGTAGTACTCAATATTGTAGATTA [XGTACX_site3856]” was tested. Which “gcPBM binding intensity (ln)” value did it give?
Answer: The value was 9.64.

From the supplement of paper PMC11417369
